Consider 61 compounds from PubChem BioAssay AID1159614 (National Center for Advancing Translational Sciences (NCATS), 2016).

About 65 (0.1%) of roughly 45,000 compounds were called active. The call rests on the fitted dose curve; in most records, active means well fitted activation curve with a large enough effect; inconclusive means small, poorly fitted or top-dose-only effect; inactive means no such curve, though single readings can be large or run the other way. The list shows a part of the results.
Potency means the concentration at half of the fitted maximal effect.

This assay has as its target Galactocerebrosidase (Homo sapiens) (UniProt P54803). As to the kind of experiment: A Novel Cell-Based Assay to Identify Small Molecules for B -Galactocerebrosidase. Further: nearly all actives have a fitted effect of over 65% in size. On activation: 0% is about no effect. To be noted: 145M-Twi-hGALC-G270D cells (Twitcher mouse brain line with human GALC G270D), HMU-beta-Gal fluorescence, 48 h; series mostly up to 57.5 µM; activation: at the top concentration. The procedure, abridged: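 Mutant human GALC (G270D), stably expressed in a Twitcher mouse brain cell line lacking endogenous GALC, is measured in live-treated cells via 6-hexadecanoylamino-4-methylumbelliferyl-β-galactoside hydrolysis (0.1 mM final, pH 5.2) with fluorescent detection.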
Sequence of UniProt P54803 (P54803 whole entry, looked up): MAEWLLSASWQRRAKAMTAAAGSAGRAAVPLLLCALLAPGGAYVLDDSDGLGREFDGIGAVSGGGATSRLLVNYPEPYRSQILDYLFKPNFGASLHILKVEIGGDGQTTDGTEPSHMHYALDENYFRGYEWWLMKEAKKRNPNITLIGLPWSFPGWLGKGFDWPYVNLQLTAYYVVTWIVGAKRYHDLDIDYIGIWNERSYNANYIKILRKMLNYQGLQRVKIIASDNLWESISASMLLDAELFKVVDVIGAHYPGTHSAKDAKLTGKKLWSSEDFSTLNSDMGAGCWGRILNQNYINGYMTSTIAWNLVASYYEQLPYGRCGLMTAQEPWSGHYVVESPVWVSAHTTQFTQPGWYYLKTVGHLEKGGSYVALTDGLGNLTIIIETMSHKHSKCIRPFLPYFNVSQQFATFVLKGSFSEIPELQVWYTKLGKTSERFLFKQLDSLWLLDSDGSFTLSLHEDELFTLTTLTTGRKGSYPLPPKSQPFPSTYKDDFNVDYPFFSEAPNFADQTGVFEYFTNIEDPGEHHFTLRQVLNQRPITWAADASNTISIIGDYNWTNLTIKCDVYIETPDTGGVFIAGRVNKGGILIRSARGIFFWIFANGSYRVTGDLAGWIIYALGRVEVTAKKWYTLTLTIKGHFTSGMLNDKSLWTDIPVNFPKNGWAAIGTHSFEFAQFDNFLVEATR
For the compound `Cc1ccc(CN2CCN(CC(=O)NCc3ccccc3Cl)C2=O)cc1`, the “activation” value was inactive: -0.781%.

As to `COc1cccc(-c2cc(C(=O)Nc3ccc(C)cc3)[nH]n2)c1`, the “activation” value was inactive: -17.3%.

Turning to `CCOc1ccc(C(=O)N2CCCCC2CCN2CCOCC2)cc1` (stereo unspecified), the “activation” value is inactive: -8.45%.

Regarding `COc1ccc(NC(=O)c2sc3nc(C)c(C(=O)Nc4ccc(Cl)cc4)c(-c4ccc(Br)cc4)c3c2N)cc1`, the “activation” value was inactive: -14.8%.

For `Cc1ccc(NC(=O)C(=O)NCC(c2cccnc2)N2CCc3ccccc32)cc1Cl` (stereo unspecified), the “activation” value was inactive: -6.96%.

Regarding `COc1ccc(S(=O)(=O)N(CC(=O)NCc2ccc(C)cc2)c2ccc(Cl)cc2)cc1`, the “activation” value is inactive: 1.6%.

As for `Cc1c(Cl)cccc1NC(=O)CCn1nc(C)c2c(C)n(-c3ccccc3)nc2c1=O`, the “activation” value is inactive: -16.5%.

With `O=C(Nc1ccc(F)c(Cl)c1)c1cc(S(=O)(=O)N2CCCc3ccccc32)ccc1F`, the “activation” value was inactive: -25.5%.

Regarding `CCOc1ccccc1NC(=O)CN1C(=O)C2(SCC(=O)N2c2cccc(F)c2)c2ccccc21` (stereo unspecified), the “activation” value is inactive: -6.83%.

For `COc1ccccc1N1CCN(CC(O)COc2cc(C)cc(C)c2)CC1` (stereo unspecified), the “activation” value is inactive: -29.2%.

For the compound `CCOc1ccc(N2C(=O)N(Cc3ccc(C)cc3C)c3ccccc3S2(=O)=O)cc1`, the “activation” value was inactive: -14%.

On to `CCn1cc(C(=O)N2CCN(c3cc(C)ccc3C)CC2)c(=O)c2cc(S(=O)(=O)N(C)C3CCCCC3)ccc21`, for which the “activation” value was inactive: -11.8%.

For `Cc1cccc(Nc2c3c(nc4nncn24)CCC3)c1`, the “activation” value was inactive: 9.17%.

As to `COc1ccc(-c2ccc3c(N)c(C(=O)Nc4cc(F)ccc4C)sc3n2)cc1`, the Potency is active: 15.8 µM.

As to `Cc1ccc(-c2cc(C(=O)NCCc3ccccc3)c3c(-c4ccc(C)cc4)[nH]nc3n2)cc1`, the “activation” value was inactive: -14.5%.

With `COc1cccc(CNC(=O)CCCN2C(=O)CSc3c2c(C)nn3-c2ccccc2)c1`, the “activation” value is inactive: -12.3%.

For `O=c1c2ccccc2n(Cc2cccc(F)c2)c(=O)n1Cc1ccccc1Cl`, the “activation” value was inactive: -5.02%.

For `Cc1cccc(NS(=O)(=O)c2ccc3c(c2)CCN3C(=O)CCC(=O)O)c1C`, the “activation” value was inactive: -7.34%.

As to `CCN(c1ccccc1)S(=O)(=O)c1ccc(NC(=O)c2cc(=O)c3cc(C)c(C)cc3o2)cc1`, the “activation” value is inactive: -18.4%.

Turning to `CCCCN1CCc2nc(N3CCN(c4ncccn4)CC3)ncc2C1`, the “activation” value is inactive: -7.19%.

Take `Cc1ccc(NC(=O)CSc2nc3c([nH]c4ccccc43)c(=O)n2-c2ccccc2)c(C)c1`: the “activation” value was inactive: -8.96%.

Consider `CCOc1ccc(C(=O)Nc2ccc3nc(SCc4ccccc4)sc3c2)cc1`, for which the “activation” value was inactive: -16.3%.

Turning to `Cc1nc2c(-c3ccc(F)cc3)c(C)nn2c(C)c1CCC(=O)NCc1ccc(Cl)cc1`, the “activation” value is inactive: -14.5%.

For `CCOc1ccc(NC(=O)c2ccc(-c3ccccc3)s2)cc1`, the “activation” value was inactive: -13.9%.

Regarding `COc1ccccc1N1CCN(C(=O)Cn2c(=O)nc(-c3ccccc3)c3cc(Cl)ccc32)CC1`, the “activation” value was inactive: -17.8%.

For `COc1cccc(-n2cc(C(=O)NCc3cccc(Cl)c3)c3ccccc3c2=O)c1`, the “activation” value was inactive: 2.08%.

Take `COc1ccc(S(=O)(=O)Nc2cc3c(cc2NCc2ccccc2)n(C)c(=O)n3C)cc1OC`: the “activation” value was inactive: -14.1%.

`CCOC(=O)Cn1c(=O)n(C2CCCCC2)c2nc(-c3ccc(Cl)cc3)nc(C(N)=O)c21`: the “activation” value was inactive: -6.64%.

On to `CC(C)c1ccc(S(=O)(=O)Nc2ccc3oc4c(c3c2)C(=O)CC(C)(C)C4)cc1`, for which the “activation” value is inactive: 6.25%.

For `Cc1ccc2c(=O)cc(CSc3nnc(-c4ccccc4)n3C)[nH]c2c1C`, the “activation” value was inactive: 2.26%.

As for `Cc1cc(-c2nc3ncccc3o2)ccc1NC(=O)c1ccc(Br)cc1`, the “activation” value was inactive: -7.96%.

As for `Cc1cc(C)c(NC(=O)c2cc3c(=O)n4ccccc4nc3n2C)c(C)c1`, the “activation” value was inactive: 5%.

As to `C[C@@H](O)[C@H]1C(=O)N2C(C(=O)O)=C(SCCN=CN)C[C@H]12`, the “activation” value was inactive: -12.4%.

As to `COc1ccc(NC(=O)c2c(-c3ccccc3)c(-c3ccccc3)nn(C)c2=O)c(OC)c1`, the “activation” value is inactive: -8.23%.

`CSc1ccc(CNC(=O)c2ccccc2NC(=O)c2nsc3ccccc23)cc1`: the “activation” value was inactive: -10.8%.

In the case of `CC(=O)N1c2ccccc2C(=O)C1N1CCN(c2ccccc2)CC1` (stereo unspecified), the “activation” value was inactive: -12.1%.

Take `COc1ccc(OCC(=O)NCC(c2ccc(Cl)cc2)N2CCCCC2)cc1` (stereo unspecified): the “activation” value is inactive: -11%.

`CN(CC1(C)CCCO1)S(=O)(=O)c1ccc(Cl)c(S(N)(=O)=O)c1` (stereo unspecified): the “activation” value was inactive: -7.43%.

As for `Cc1c(Cl)cccc1NC(=O)c1ccc(C(=O)Nc2cccc(Cl)c2C)cc1`, the “activation” value is inactive: -10%.

As to `COCCCNC(=O)c1sc2nc(C)c(C(=O)Nc3ccc(C)cc3C)c(-c3ccc(Cl)cc3)c2c1N`, the “activation” value was inactive: -15.4%.

As to `CC(=O)N1CCc2c(sc3c2c(=O)n(-c2ccccc2C)c(=O)n3Cc2cccc(F)c2)C1`, the “activation” value was inactive: -12.9%.

For `COc1cc(OC)cc(-n2nnc(-c3nc(-c4ccccc4Cl)no3)c2N)c1`, the “activation” value was inactive: -11.4%.

Turning to `CC1CCN(C(=O)c2cnn(-c3cccc(Cl)c3)c2C2CCN(C(=O)OC(C)(C)C)CC2)CC1`, the “activation” value was inactive: -16.9%.

Consider `CC(=O)Nc1ccc(S(=O)(=O)N2CCC(Oc3ccc(-n4cnnn4)cc3)CC2)cc1`, for which the “activation” value was inactive: -4.32%.

As for `O=C(c1ccccc1Cl)n1nc(-c2cccnc2)nc1NCc1ccc(F)cc1`, the “activation” value is inactive: -10.8%.

Regarding `CCCCOc1ccc(C(=O)N(Cc2ccc(C(C)C)cc2)C2CCS(=O)(=O)C2)cc1` (stereo unspecified), the “activation” value is inactive: -4.74%.

Regarding `COC(=O)c1scc(-c2ccccc2)c1S(=O)(=O)Nc1cccc(C)c1C`, the “activation” value is inactive: -3.13%.

On to `Cc1ccccc1Nc1c(-c2ccc(N3CCOCC3)cc2)nc2ncccn12`, for which the “activation” value is inactive: -10.9%.

For the compound `O=C(Nc1ccccc1-c1nc2ccccc2s1)c1cc(Cl)cc(Cl)c1`, the “activation” value was inactive: -20.9%.

Turning to `Cc1c(CNC(C)CCc2ccccc2)c(C(=O)O)c(C)n1Cc1ccc(F)cc1Cl` (stereo unspecified), the “activation” value is inactive: -25.5%.

For the compound `COC(=O)c1cc2sc(C)cc2n1Cc1ccc(Br)cc1F`, the “activation” value was inactive: 2.42%.

`COc1ccc(C2=NN(CC(=O)NCCCN(C)c3ccccc3)C(=O)CC2)cc1`: the “activation” value is inactive: 25%.

Regarding `COc1ccc(N2CCN(C3=NS(=O)(=O)C(c4cccc(Br)c4)=C3C)CC2)cc1`, the “activation” value is inactive: 4.23%.

For `Cc1cc(C)c(NC(=O)CCc2c(C)nc3c(c(C)nn3C(C)(C)C)c2C)c(C)c1`, the “activation” value is inactive: 5.26%.

As to `CCOC(=O)c1ccc(NC(=O)CCc2c(C)nc3nc[nH]n3c2=O)cc1`, the “activation” value was inactive: -21.3%.

Consider `CCCSCCCNC(=O)c1ccc2c(c1)sc1nc(-c3ccc(OCC)cc3)cn12`, for which the “activation” value was inactive: -5.47%.

Turning to `Cc1ccc2cc(CN(C(=O)c3cccc(Cl)c3)c3ccccc3)c(=O)[nH]c2c1`, the “activation” value was inactive: -20.1%.

With `COc1ccccc1NC(=O)c1oc2ccccc2c1NC(=O)C1CCCCC1`, the “activation” value is inactive: -7.52%.

For the compound `CC1C(=O)N2CCCc3cc(S(=O)(=O)N4CCC(C(N)=O)CC4)cc1c32` (stereo unspecified), the “activation” value is inactive: -20.7%.

With `Cc1ccccc1CSc1nc2ccsc2c(=O)n1CCC(C)C`, the “activation” value is inactive: -8.63%.

Consider `CN1c2ccc(Cl)cc2-c2nc(SCC(=O)NCc3ccccc3)ncc2S1(=O)=O`, for which the “activation” value was inactive: -5.69%.
